Consider 79 compounds from the supplement of paper PMC8183993.

Structures can show the parent of a compound that is named as a salt. ± gives the standard deviation of the averaged measurements. Over roughly 3,100 compounds, “mean cytoplasmic OPP incorporation (global translation) relative to DMSO” has its median near 100; the lowest 2% begin near 56. Some of the results follow.

This assay concerns U2OS. In words: mean cytoplasmic OPP incorporation (global translation) relative to DMSO (% of DMSO); higher = more protein synthesis. The following applies: 10 µM; 24 h. Here is the method:
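Primary image-based screen in U2OS cells: compounds at 10 uM for 24 h, then a 1 h o-propargyl-puromycin (OPP) pulse, click labelling, and high-throughput microscopy. Mean cytoplasmic OPP intensity and nuclei count were normalised to DMSO wells within each plate (DMSO = 100) and averaged over triplicate plates.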
As for `COC(=O)c1sccc1S(=O)(=O)Nc1ccc(Nc2ccccc2)cc1OC`, the “mean cytoplasmic OPP incorporation” value was 91.1.

Turning to `CC(C)(Sc1cc(C(C)(C)C)c(O)c(C(C)(C)C)c1)Sc1cc(C(C)(C)C)c(O)c(C(C)(C)C)c1` [Probucol], the “mean cytoplasmic OPP incorporation” value turned out to be 104.4 ± 1. Then `O=c1cc(N2CCNCC2)oc2c(-c3ccccc3)cccc12`, with 102. For `COc1cc2ncc(-c3ccccc3)nc2cc1OC` [Tyrphostin AG 1296 (AG 1296)], the “mean cytoplasmic OPP incorporation” value is 92.8. With `COc1cc(Nc2ncc(F)c(Nc3ccc4c(n3)NC(=O)C(C)(C)O4)n2)cc(OC)c1OC` the figure was 86.6. As to `COc1cc(Nc2ncc(F)c(Nc3ccc4c(n3)NC(=O)C(C)(C)O4)n2)cc(OC)c1OC` [R406(free base)], the “mean cytoplasmic OPP incorporation” value was determined as 88.5.

As to `CC(C)(Oc1ccc(Cl)cc1)C(=O)O` [Clofibric acid], the “mean cytoplasmic OPP incorporation” value came out at 102 ± 4.6. Regarding `CC(=O)[C@@]1(O)CC[C@H]2[C@@H]3CCC4=CC(=O)CCC4=C3[C@@H](c3ccc(N(C)C)cc3)C[C@@]21C` [Ulipristal], the “mean cytoplasmic OPP incorporation” value amounted to 112. With `COc1ccc(C(=O)Nc2sc3c(c2C(N)=O)CCCC3)cc1OC` the figure was 98.4 ± 1.2; with `CN(C)CC/C=C1\c2ccccc2CSc2ccccc21` [Dosulepin hydrochloride], 100. As for `O=NO` [Sodium Nitrite], the “mean cytoplasmic OPP incorporation” value amounted to 97. Then `CC(N)(Cc1ccc(O)c(O)c1)C(=O)O` [L-(-)- _-Methyldopa], with 103; and `Cc1ccc(NC(=O)c2ccc(CN3CC[C@H](N(C)C)C3)c(C(F)(F)F)c2)cc1Nc1nccc(-c2cncnc2)n1` [Bafetinib (INNO-406)], with 118; and `CC(C)(S)[C@@H](N)C(=O)O` [Penicillamine], with 109. With `COc1ccc(-c2ccc(=N)n(CCCC(=O)O)n2)cc1` [Gabazine bromide] the figure was 107; with `COc1ccc(-c2ccc(=N)n(CCCC(=O)O)n2)cc1`, 98.6.

For `CO[C@H]1C[C@H](O[C@H]2[C@H](C)[C@@H](O[C@@H]3O[C@H](C)C[C@H](N(C)C)[C@H]3OC(C)=O)[C@@H](C)C[C@@]3(CO3)C(=O)[C@H](C)[C@@H](OC(C)=O)[C@@H](C)[C@@H](C)OC(=O)[C@@H]2C)O[C@@H](C)[C@@H]1OC(C)=O` [Troleandomycin], the “mean cytoplasmic OPP incorporation” value was found to be 106. Then `Cc1cc(C(=O)NNCc2ccccc2)no1` [Isocarboxazid], with 106.

With `Cn1c(=O)c2c(ncn2CC(=O)O)n(C)c1=O` [Acefylline], the “mean cytoplasmic OPP incorporation” value was 104. With `CS(=O)(=O)c1cccc(CNc2nc(Nc3ccc4c(c3)CCC(=O)N4)ncc2C(F)(F)F)c1` the figure was 110 ± 24; with `CC1(C)CCC(CN2CCN(c3ccc(C(=O)NS(=O)(=O)c4ccc(NCC5CCOCC5)c([N+](=O)[O-])c4)c(Oc4cnc5[nH]ccc5c4)c3)CC2)=C(c2ccc(Cl)cc2)C1`, 117.

In the case of `CCCCCCCCCCC[C@@H](C[C@@H]1OC(=O)[C@H]1CCCCCC)OC(=O)[C@H](CC(C)C)NC=O` [Orlistat], the “mean cytoplasmic OPP incorporation” value came to 105. With `CCCCCCCCCCC[C@@H](C[C@@H]1OC(=O)[C@H]1CCCCCC)OC(=O)[C@H](CC(C)C)NC=O` [Orlistat (Alli, Xenical)] the figure was 103; with `CCN(CC)CCNc1ccc(CO)c2sc3ccccc3c(=O)c12` [Hycanthone], 89.7. For the compound `CNC(C)CCC=C(C)C` (centres undefined) [Isometheptene mucate], the “mean cytoplasmic OPP incorporation” value is 107. Then `O=C(COc1ccc(Cl)cc1)N1CCN(Cc2ccc3c(c2)OCO3)CC1` [Fipexide hydrochloride], with 97.9; and `CN(Cc1cnc2nc(N)nc(N)c2n1)c1ccc(C(=O)N[C@@H](CCC(=O)O)C(=O)O)cc1` [Methotrexate], with 94.3 ± 14; and `CN(Cc1cnc2nc(N)nc(N)c2n1)c1ccc(C(=O)N[C@@H](CCC(=O)O)C(=O)O)cc1` (racemic) [Amethopterin (R,S)], with 101. Then `Nc1nc(NC2CC2)c2ncn([C@H]3C=C[C@@H](CO)C3)c2n1` [Abacavir Sulfate], with 94.4; and `COc1cc(C(C)=O)ccc1O` [Apocynin (Acetovanillone)], with 105; and `CCCn1c(=O)[nH]c2nc(-c3ccc(S(=O)(=O)O)cc3)[nH]c2c1=O`, with 99.9.

`CC(Cc1ccc(O)c(O)c1)(NN)C(=O)O` [(S)-(-)-Carbidopa]: the “mean cytoplasmic OPP incorporation” value was determined as 101. Then `CCCCCCCCCCCCCCCCOP(=O)([O-])OCC[N+](C)(C)C` [Miltefosine (Hexadecylphosphocholine)], with 104; and `Cc1ccsc1/C=C/C1=NCCCN1C` [Morantel tartrate], with 97.9; and `CN(C)c1ccc(O)c2c1C[C@H]1C[C@H]3[C@H](N(C)C)C(O)=C(C(N)=O)C(=O)[C@@]3(O)C(O)=C1C2=O` [Minocycline hydrochloride], with 104. Then `Cn1cccc1/C=C1\C(=O)NC(=O)c2ccccc21`, with 89.4; and `COc1cc2c(CCNC(C)=O)c[nH]c2cc1Cl` [6-Chloromelatonin], with 106. Regarding `Cc1ccc(S(=O)(=O)NC(=O)NN2CCCCCC2)cc1` [Tolazamide], the “mean cytoplasmic OPP incorporation” value was found to be 102 ± 6. With `C=CC(C)(C)c1cc(/C=C/C(=O)c2ccc(O)cc2)c(OC)cc1O` [Licochalcone A] the figure was 90.4; with `C[C@]12CC[C@@H]3c4ccc(OS(=O)(=O)O)cc4CC[C@H]3[C@@H]1CCC2=O` [Estropipate], 101; with `CCOC(=O)c1ccc(N)cc1` [Benzocaine], 102.

Take `C[C@H]1[C@H](C)CC[C@]2(C(=O)O)CC[C@]3(C)C(=CC[C@@H]4[C@@]5(C)C[C@@H](O)[C@H](O)[C@@](C)(CO)[C@@H]5CC[C@]43C)[C@H]12` [Asiatic acid]: the “mean cytoplasmic OPP incorporation” value was determined as 99.67 ± 0.16.

In the case of `CCN(CC)CCOC(=O)C(c1ccccc1)c1ccccc1` [Adiphenine hydrochloride], the “mean cytoplasmic OPP incorporation” value was determined as 105. Then `OC(CCCN1CCCCC1)(c1ccccc1)c1ccccc1` [Diphenidol hydrochloride], with 92.9. Then `CC1c2ccccc2CN1CC1=NCCN1` (centres undefined), with 99.8.

`CCCCCCCCCCCCc1ccc(S(=O)(=O)Nc2nncs2)cc1`: the “mean cytoplasmic OPP incorporation” value amounted to 101.8 ± 0.36. With `CN1CCN(c2c(F)cc3c(=O)c(C(=O)O)cn4c3c2OCN4C)CC1` [Marbofloxacin] the figure was 101; with `COc1cc(-c2ccc(=O)[nH]n2)ccc1OC(F)F` [Zardaverine], 104 ± 6.6.

On to `Cc1ccc([N+](=O)[O-])cc1S(=O)(=O)N(C)/N=C/c1cnc2ccc(Br)cn12`, for which the “mean cytoplasmic OPP incorporation” value turned out to be 44.3. Then `CCCCCCCc1ccc(CCc2cccc(O)c2C(=O)O)cc1`, with 75.5. Consider `c1ccc(COCCCc2c[nH]cn2)cc1` [Proxyfan Oxalate], for which the “mean cytoplasmic OPP incorporation” value turned out to be 97. Then `CC[N+](CC)(CC)CC(=O)Nc1c(C)cccc1C` [QX 314 chloride], with 103; and `CC[N+](CC)(CC)CC(=O)Nc1c(C)cccc1C` [QX-314 bromide], with 91.7; and `CC[N+](CC)(CC)CC(=O)Nc1c(C)cccc1C` [QX 314 bromide], with 97.1.

Take `CCCCNc1c(C(=O)OCC)c(C)nc2c1cnn2CC` [Tracazolate hydrochloride]: the “mean cytoplasmic OPP incorporation” value is 117 ± 7.

With `CC(C)c1ccc(Cn2ccc3c4c(N)nc(NC5CC5)nc4ccc32)cc1`, the “mean cytoplasmic OPP incorporation” value is 40.1.

Consider `COc1cc(NC(C)CCCN)c2ncccc2c1` (centres undefined) [Primaquine diphosphate], for which the “mean cytoplasmic OPP incorporation” value came out at 36.1. Then `CCCCC1(COC(=O)CCC(=O)O)C(=O)N(c2ccccc2)N(c2ccccc2)C1=O` [Suxibuzone], with 94.7; and `CN(C)[C@@H]1C(O)=C(C(N)=O)C(=O)[C@@]2(O)C(O)=C3C(=O)c4c(O)cccc4[C@@](C)(O)[C@H]3[C@H](O)[C@@H]12` [Oxytetracycline dihydrate], with 106 ± 13.

With `CN(C)[C@@H]1C(O)=C(C(N)=O)C(=O)[C@@]2(O)C(O)=C3C(=O)c4c(O)cccc4[C@@](C)(O)[C@H]3[C@H](O)[C@@H]12` [Oxytetracycline (Terramycin)], the “mean cytoplasmic OPP incorporation” value came to 104. Then `COc1cc(OC)c(/C=C/S(=O)(=O)Cc2ccc(OC)c(NCC(=O)O)c2)c(OC)c1`, with 95.4 ± 6.3. With `OC(CN1CCN(c2cccc(Cl)c2)CC1)C(c1ccccc1)c1ccccc1` (centres undefined) the figure was 98.8. With `COc1ccc(-c2ccc3c(N4CCOCC4)nc(N4C[C@@H](C)O[C@@H](C)C4)nc3n2)cc1CO` the figure was 88.2.

In the case of `Cc1cc(-c2ccccc2)nnc1NCCN1CCOCC1` [Minaprine dihydrochloride], the “mean cytoplasmic OPP incorporation” value is 99.4. Then `NC(N)=Nc1nc(CSCC/C(N)=N/S(N)(=O)=O)cs1` [Famotidine (Pepcid)], with 108; and `NC(N)=Nc1nc(CSCC/C(N)=N/S(N)(=O)=O)cs1` [Famotidine], with 97.4; and `Cl.N=C(N)NCCC[C@H](N)C(=O)O` [L-Arginine HCl], with 99. Then `CC/C(=C(/CC)c1ccc(O)cc1)c1ccc(O)cc1` [Diethylstilbestrol], with 107; and `CC1=C(/C=C/C(C)=C/C=C/C(C)=C\C(=O)O)C(C)(C)CCC1` [13-cis Retinoic acid], with 101; and `CC1=C(/C=C/C(C)=C/C=C/C(C)=C\C(=O)O)C(C)(C)CCC1` [Isotretinoin], with 90.6. With `CSc1ccc2c(c1)N(CCC1CCCCN1C)c1ccccc1S2` (centres undefined) [Thioridazine hydrochloride] the figure was 116; with `CC(C)(Sc1ccc(CCN(CCCCC2CCCCC2)C(=O)NC2CCCCC2)cc1)C(=O)O`, 102 ± 4.1; with `O=C1C=CC(=O)C2=C1C1c3ccccc3C2c2ccccc21`, 103.

For the compound `CC(/C=C/C(=O)NO)=C\[C@@H](C)C(=O)c1ccc(N(C)C)cc1` [Trichostatin A], the “mean cytoplasmic OPP incorporation” value is 66.2 ± 33. With `Cc1cc(Nc2nc(N[C@@H](C)c3ccc(F)cc3)c(C#N)cc2F)n[nH]1` the figure was 92.2; with `CCN(CCO)CCCC(C)Nc1ccnc2cc(Cl)ccc12` (centres undefined) [Hydroxychloroquine], 93. With `CCN(CCO)CCCC(C)Nc1ccnc2cc(Cl)ccc12` (centres undefined) [Hydroxychloroquine sulfate] the figure was 102. With `Cc1nc(Nc2ncc(C(=O)Nc3c(C)cccc3Cl)s2)cc(N2CCN(CCO)CC2)n1` the figure was 123. On to `CCN1CCN(Cc2ccc(-c3cc4c(N[C@H](C)c5ccccc5)ncnc4[nH]3)cc2)CC1`, for which the “mean cytoplasmic OPP incorporation” value came out at 99.4 ± 3.2.
